# Results taken from the supplement of paper PMC8728848.
# The other results are listed elsewhere or left out.
# Columns and labels:
# Test in all cases: glycan array binding signal (z-score within array); higher = stronger binding
# Settings in all cases: glycan notation: IUPAC condensed, linker removed
# Gal6S(b1-3)GlcNAc6S = target: Gal6S(b1-3)GlcNAc6S
# Procedure, shortened: (§1)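 The Consortium for Functional Glycomics database supplied 3228 glycan arrays, of which those lacking an available protein sequence were dropped. The binding signal, a within-array Z-score, was averaged across arrays of the same protein sequence and across linkers. Negative scores can be read as non-binding.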
# Gal6S(b1-4)Glc = target: Gal6S(b1-4)Glc
# Procedure, shortened: as §1
# Gal6S(b1-4)Glc6S = target: Gal6S(b1-4)Glc6S
# Procedure, shortened: as §1
# Gal6S(b1-4)GlcNAc = target: Gal6S(b1-4)GlcNAc
# Procedure, shortened: as §1
# Gal6S(b1-4)GlcNAc6S = target: Gal6S(b1-4)GlcNAc6S
# Procedure, shortened: as §1
# GalNAc(a1-3)Gal = target: GalNAc(a1-3)Gal
# Procedure, shortened: as §1
# GalNAc(a1-3)GalNAc = target: GalNAc(a1-3)GalNAc
# Procedure, shortened: as §1
# [1] = target: GalNAc(a1-3)GalNAc(a1-3)Gal(a1-4)Gal(b1-4)GlcNAc
# Procedure, shortened: as §1
# [2] = target: GalNAc(a1-3)GalNAc(b1-3)Gal(a1-4)Gal(b1-4)Glc
# Procedure, shortened: as §1
# [3] = target: GalNAc(a1-3)GalNAc(b1-3)Gal(a1-4)Gal(b1-4)GlcNAc
# Procedure, shortened: as §1
# GalNAc(b1-3)Gal = target: GalNAc(b1-3)Gal
# Procedure, shortened: as §1
# [4] = target: GalNAc(b1-3)Gal(a1-4)Gal(b1-4)GlcNAc
# Procedure, shortened: as §1
# [5] = target: GalNAc(b1-3)Gal(a1-4)Gal(b1-4)GlcNAc(b1-3)Gal(b1-4)Glc
# Procedure, shortened: as §1
# [6] = target: GalNAc(b1-3)Gal(a1-6)Gal(b1-4)Glc
# Procedure, shortened: as §1
# GalNAc(b1-3)GalNAc = target: GalNAc(b1-3)GalNAc
# Procedure, shortened: as §1
# GalNAc(b1-3)GlcNAc = target: GalNAc(b1-3)GlcNAc
# Procedure, shortened: as §1
# GalNAc(b1-4)Gal(b1-4)Glc = target: GalNAc(b1-4)Gal(b1-4)Glc
# Procedure, shortened: as §1
# GalNAc(b1-4)GlcNAc = target: GalNAc(b1-4)GlcNAc
# Procedure, shortened: as §1
# [7] = target: GalNAc(b1-4)GlcNAc(b1-2)Man
# Procedure, shortened: as §1
# [8] = target: GalNAc(b1-4)GlcNAc(b1-2)Man(a1-3)[GalNAc(b1-4)GlcNAc(b1-2)Man(a1-6)]Man(b1-4)GlcNAc(b1-4)GlcNAc
# Procedure, shortened: as §1
# [9] = target: GalNAc(b1-4)GlcNAc(b1-3)GalNAc(b1-4)GlcNAc
# Procedure, shortened: as §1
# GalNAc(b1-4)GlcNAc6S = target: GalNAc(b1-4)GlcNAc6S
# Procedure, shortened: as §1
# GalNAc(b1-6)GalNAc = target: GalNAc(b1-6)GalNAc
# Procedure, shortened: as §1
# GalNAc3S(b1-4)GlcNAc = target: GalNAc3S(b1-4)GlcNAc
# Procedure, shortened: as §1
# GalNAc3S(b1-4)GlcNAc3S = target: GalNAc3S(b1-4)GlcNAc3S
# Procedure, shortened: as §1
# [10] = target: GalNAc3S(b1-4)[Fuc(a1-3)]GlcNAc
# Procedure, shortened: as §1
# GalNAc4S6S(b1-4)GlcNAc = target: GalNAc4S6S(b1-4)GlcNAc
# Procedure, shortened: as §1
# GalNAc6S(b1-4)GlcNAc = target: GalNAc6S(b1-4)GlcNAc
# Procedure, shortened: as §1
# Glc(a1-4)Glc = target: Glc(a1-4)Glc
# Procedure, shortened: as §1
# [11] = target: Glc(a1-4)Glc(a1-4)Glc(a1-4)Glc
# Procedure, shortened: as §1
# Glc(a1-6)Glc(a1-6)Glc = target: Glc(a1-6)Glc(a1-6)Glc
# Procedure, shortened: as §1
# [12] = target: Glc(a1-6)Glc(a1-6)Glc(a1-6)Glc
# Procedure, shortened: as §1
# Glc(b1-4)Glc = target: Glc(b1-4)Glc
# Procedure, shortened: as §1
# Glc(b1-6)Glc = target: Glc(b1-6)Glc
# Procedure, shortened: as §1
# GlcA(b1-3)Gal = target: GlcA(b1-3)Gal
# Procedure, shortened: as §1
# GlcA(b1-3)GlcNAc = target: GlcA(b1-3)GlcNAc
# Procedure, shortened: as §1
# GlcA(b1-6)Gal = target: GlcA(b1-6)Gal
# Procedure, shortened: as §1
# [13] = target: GlcA3S(b1-3)Gal(b1-4)GlcNAc(b1-2)Man
# Procedure, shortened: as §1
binder,measurement,setting,value
"LCA (Lens culinaris), P02870 (protein) MASLQTQMISFYLIFLSILLTTIFFFKVNSTETTSFSITKFSPDQKNLIFQGDGYTTKGKLTLTKAVKSTVGRALYSTPIHIWDRDTGNVANFVTSFTFVIDAPSSYNVADEFTFFIAPVDTKPQTGGGYLGVFNSKEYDKTSQTVAVEFDTFYNAAWDPSNKERHIGIDVNSIKSVNTKSWNLQNGERANVVIAFNAATNVLTVTLTYPNSLEEENVTSYTLNEVVPLKDVVPEWVRIGFSATTGAEFAAHEVHSWSFHSELGGTSSSKQAADA",glycan array binding signal (z-score),Gal6S(b1-3)GlcNAc6S,-0.231
same,glycan array binding signal (z-score),Gal6S(b1-4)Glc,-0.22
same,glycan array binding signal (z-score),Gal6S(b1-4)Glc6S,-0.215
same,glycan array binding signal (z-score),Gal6S(b1-4)GlcNAc,-0.22
same,glycan array binding signal (z-score),Gal6S(b1-4)GlcNAc6S,-0.194
same,glycan array binding signal (z-score),GalNAc(a1-3)Gal,-0.204
same,glycan array binding signal (z-score),GalNAc(a1-3)GalNAc,-0.228
same,glycan array binding signal (z-score),[1],-0.208
same,glycan array binding signal (z-score),[2],-0.229
same,glycan array binding signal (z-score),[3],-0.185
same,glycan array binding signal (z-score),GalNAc(b1-3)Gal,-0.208
same,glycan array binding signal (z-score),[4],-0.203
same,glycan array binding signal (z-score),[5],-0.231
same,glycan array binding signal (z-score),[6],-0.199
same,glycan array binding signal (z-score),GalNAc(b1-3)GalNAc,-0.19
same,glycan array binding signal (z-score),GalNAc(b1-3)GlcNAc,-0.23
same,glycan array binding signal (z-score),GalNAc(b1-4)Gal(b1-4)Glc,-0.208
same,glycan array binding signal (z-score),GalNAc(b1-4)GlcNAc,-0.18
same,glycan array binding signal (z-score),[7],-0.199
same,glycan array binding signal (z-score),[8],-0.144
same,glycan array binding signal (z-score),[9],-0.225
same,glycan array binding signal (z-score),GalNAc(b1-4)GlcNAc6S,-0.236
same,glycan array binding signal (z-score),GalNAc(b1-6)GalNAc,-0.197
same,glycan array binding signal (z-score),GalNAc3S(b1-4)GlcNAc,-0.237
same,glycan array binding signal (z-score),GalNAc3S(b1-4)GlcNAc3S,-0.235
same,glycan array binding signal (z-score),[10],-0.233
same,glycan array binding signal (z-score),GalNAc4S6S(b1-4)GlcNAc,-0.271
same,glycan array binding signal (z-score),GalNAc6S(b1-4)GlcNAc,-0.276
same,glycan array binding signal (z-score),Glc(a1-4)Glc,-0.208
same,glycan array binding signal (z-score),[11],-0.207
same,glycan array binding signal (z-score),Glc(a1-6)Glc(a1-6)Glc,-0.194
same,glycan array binding signal (z-score),[12],-0.227
same,glycan array binding signal (z-score),Glc(b1-4)Glc,-0.21
same,glycan array binding signal (z-score),Glc(b1-6)Glc,-0.176
same,glycan array binding signal (z-score),GlcA(b1-3)Gal,-0.231
same,glycan array binding signal (z-score),GlcA(b1-3)GlcNAc,-0.217
same,glycan array binding signal (z-score),GlcA(b1-6)Gal,-0.206
same,glycan array binding signal (z-score),[13],-0.249
